Assay results: PubChem BioAssay AID1159614 (National Center for Advancing Translational Sciences (NCATS), 2016)
Out of some 45,000 compounds screened, about 65 (0.1%) were called active. The call rests on the fitted dose curve; in most records, active means well fitted activation curve with a large enough effect; inconclusive means small, poorly fitted or top-dose-only effect; inactive means no such curve, though single readings can be large or run the other way. This is one part of the list.
Further: 0% is about no effect; nearly all actives have a fitted effect of over 65% in size.

The compounds below were run against Galactocerebrosidase (Homo sapiens) (UniProt P54803) (assay: A Novel Cell-Based Assay to Identify Small Molecules for B -Galactocerebrosidase). Conditions: 145M-Twi-hGALC-G270D cells (Twitcher mouse brain line with human GALC G270D), HMU-beta-Gal fluorescence, 48 h; series mostly up to 57.5 µM; activation: at the top concentration.
UniProt P54803, sequence (P54803 whole entry, looked up): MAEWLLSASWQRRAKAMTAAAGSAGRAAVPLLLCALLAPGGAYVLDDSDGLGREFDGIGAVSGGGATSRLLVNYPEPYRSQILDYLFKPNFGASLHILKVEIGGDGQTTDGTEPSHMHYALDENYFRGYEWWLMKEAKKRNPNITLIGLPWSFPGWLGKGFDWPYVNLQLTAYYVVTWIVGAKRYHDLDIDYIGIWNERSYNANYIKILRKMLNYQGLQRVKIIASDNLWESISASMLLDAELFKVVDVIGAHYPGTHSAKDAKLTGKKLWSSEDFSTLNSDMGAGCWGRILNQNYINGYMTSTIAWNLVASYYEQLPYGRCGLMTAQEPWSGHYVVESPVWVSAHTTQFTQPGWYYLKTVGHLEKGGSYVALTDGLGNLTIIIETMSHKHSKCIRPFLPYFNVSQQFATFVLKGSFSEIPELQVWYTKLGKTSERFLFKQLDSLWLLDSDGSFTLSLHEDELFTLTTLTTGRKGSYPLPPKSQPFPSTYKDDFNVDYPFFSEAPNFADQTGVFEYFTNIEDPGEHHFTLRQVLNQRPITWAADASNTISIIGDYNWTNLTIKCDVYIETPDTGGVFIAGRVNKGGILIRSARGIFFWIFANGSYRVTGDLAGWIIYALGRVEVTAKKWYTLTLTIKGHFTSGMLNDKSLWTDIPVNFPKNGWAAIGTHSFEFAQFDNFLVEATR
Summary of the method: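 Fluorogenic HMU-b-Gal hydrolysis (0.1 mM final, pH 5.2 citrate-phosphate with 1 mg/mL sodium taurocholate; carbonate stop buffer) measures mutant GALC activity after compound treatment of live 145M-Twi Twitcher brain cells stably carrying human GALC-G270D, with wild-type GALC line alongside; activation sought.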
For `CCc1ccc(NC(=O)C2CCN(c3nc(-c4ccc(OC)cc4)no3)CC2)cc1`, the “activation” value was inactive: -0.229%. With `Cc1cccc(C(=O)Nc2ccc3oc(-c4cccc5c(Br)cccc45)nc3c2)c1` the “activation” value was inactive: -19.2%. In the case of `COc1ccc2c(c1)c1c(c(=O)n(-c3ccc(F)c(Cl)c3)c(=O)n1Cc1cccc(C)c1)n2C`, the “activation” value is reported as inactive: -5.99%. `Cc1ccc(C(=O)Nc2c(C(=O)NC(C)(C)C)oc3ccccc23)cc1` was tested, and the “activation” value was inactive: -22.6%. `CCOc1ccc2c(c1)c(=O)c(C(=O)c1ccccc1)cn2Cc1ccccc1` was tested, and the “activation” value was inactive: -10.9%. With `Cc1ccc2c(c1)C(=O)OC(C(=O)Nc1ncc(Cc3ccccc3Cl)s1)C2` (stereo unspecified) the “activation” value was inactive: -0.551%. `Cc1ccc(-c2cc(-c3ccc4c(c3)NC(=O)CO4)nc3c2COc2ccccc2-3)cc1` was tested, and the “activation” value was inactive: -3%. For `Cc1cccc(N2C(=O)N(Cc3cc(=O)n4ccccc4n3)c3ccccc3S2(=O)=O)c1`, the “activation” value was inactive: 21.6%. For `COc1ccc(CNC(=O)Cn2nc3c(cc2=O)CCCC3)cc1`, the “activation” value was inactive: -9.99%. In the case of `CCOC(=O)c1ccc(NC(=O)CSc2c(C(C)C)cnc3c2c(=O)n(C)c(=O)n3C)cc1`, the “activation” value is reported as inactive: -9.13%. With `Cc1ccc(-n2nc(C)c3nc(CCC(=O)Nc4cccc(C)c4C)c(=O)n(C)c32)cc1` the “activation” value was inactive: -12.2%. With `Cc1cc(C)c2c(CC(=O)Nc3ccc(F)cc3)coc2c1` the “activation” value was inactive: -15.3%. With `Cc1cccc(NC(=O)N2CCC(CN3CCC(C)CC3)CC2)c1C` the “activation” value was inactive: -8.55%. In the case of `CC(=O)Nc1c(C)nn(-c2ccccc2)c1N1CCC(C(=O)Nc2ccc(F)cc2Cl)CC1`, the “activation” value is reported as inactive: -6.88%. For `CCCCCCC[N+](CC)(CC)CCCCc1ccc(Cl)cc1`, the “activation” value was inactive: -17.6%. With `Cc1ccccc1CNC(=O)C1CCN(c2nnc(-n3c(C)ccc3C)s2)CC1` the “activation” value was inactive: -2.05%. With `COc1ccc2c(c1)c(=O)c(S(=O)(=O)c1ccc(Cl)cc1)cn2C` the “activation” value was inactive: -5.06%. With `CCCn1c(SCc2nc(-c3cc(OC)ccc3OC)no2)nnc1-c1ccc(Cl)cc1` the “activation” value was inactive: -11.3%. For `CCOC(=O)c1cccc(NC(=O)c2cc3cc4ccc(C)cc4nc3o2)c1`, the “activation” value was inactive: -7.19%. With `CCc1cccc(CC)c1NC(=O)C(CC)n1nc(C)n2c(cc3cc(C)ccc32)c1=O` (stereo unspecified) the “activation” value was inactive: -11%. With `CCOC(=O)c1c(C)[nH]c(C)c1S(=O)(=O)N1CCCC(C(=O)Nc2ccccc2OCC)C1` (stereo unspecified) the “activation” value was inactive: -0.614%. In the case of `Cc1ccc2c(c1)C(c1ccccc1)N(C(=O)c1ccccc1F)CC(=O)N2` (stereo unspecified), the “activation” value is reported as inactive: -9.27%. `Cc1ccc(-c2nc(CS(=O)(=O)CC(=O)N3CCN(c4cccc(C)c4C)CC3)c(C)o2)cc1` was tested, and the “activation” value was inactive: -13.7%. With `CC1CCN(S(=O)(=O)c2ccc3c(c2)oc(=O)n3CC(=O)NC(C)c2ccccc2)CC1` (stereo unspecified) the “activation” value was inactive: -30.2%. With `CCCc1ccc(OC(C)C(=O)Nc2sc3c(c2C(=O)OC)CCCCC3)cc1` (stereo unspecified) the “activation” value was inactive: -18.8%. For `CCN1CCN(c2csc3ccc(C)cc3c2=O)CC1`, the “activation” value was inactive: -10.6%.
